# Laboratory results taken from PubChem BioAssay AID1745853 (National Center for Advancing Translational Sciences (NCATS), 2022).
# Where “and” joins values, the source holds several entries; their conditions need not be identical. Equal values may be shown once. Some of the results follow. Further columns of the screen follow, without active or inactive calls.
# Assays:
# Assay in all cases: Primary Screen for Target Class Profiling of Small Molecule Inhibitors of Methyltransferases
# [1] = biological target: Glycine N-methyltransferase (Homo sapiens) (UniProt Q14749); settings: purified enzyme, MTase-Glo SAH luminescence; measured here: GNMT inhibition; at 40 µM; stronger effect = lower value
# In short: (§1)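 Each enzyme was reacted with SAM and its substrate, with compounds tested once at 40 uM; SAH formed was read by MTase-Glo luminescence.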
# [2] = biological target: Guanidinoacetate N-methyltransferase (Homo sapiens) (UniProt Q14353); settings: purified enzyme, MTase-Glo SAH luminescence; measured here: GAMT inhibition; at 40 µM; stronger effect = lower value
# In short: as §1
# [3] = biological target: Histamine N-methyltransferase (Homo sapiens) (UniProt P50135); settings: purified enzyme, MTase-Glo SAH luminescence; measured here: HNMT inhibition; at 40 µM; stronger effect = lower value
# In short: as §1
# [4] = biological target: Nicotinamide N-methyltransferase (Homo sapiens) (UniProt P40261); settings: purified enzyme, MTase-Glo SAH luminescence; measured here: NNMT inhibition; at 40 µM; stronger effect = lower value
# In short: as §1
# [5] = biological target: Phenylethanolamine N-methyltransferase (Homo sapiens) (UniProt P11086); settings: purified enzyme, MTase-Glo SAH luminescence; measured here: PNMT inhibition; at 40 µM; stronger effect = lower value
# In short: as §1
# On the % scale 0 is the no-effect control and ±100 the full control effect.
Compound,"activity change, negative = inhibition [1]","activity change, negative = inhibition [2]","activity change, negative = inhibition [3]","activity change, negative = inhibition [4]","activity change, negative = inhibition [5]"
CCCn1c(=O)c2ccccc2n2c(SCC(=O)N3CCN(c4ccc(F)cc4)CC3)nnc12,-4.75%,0%,2.64%,-10.1%,0.524%
Cc1nn(C)c(C)c1S(=O)(=O)N1CCC(c2noc(-c3ccccc3)n2)C1 (stereo not given),-4.37%,-2.42%,-0.185%,-9.57%,1.48%
CC(=O)Nc1nnc(S(N)(=O)=O)s1,1.01%,14.9%,4.81%,-0.121%,13.2%
COc1c(Nc2ncc(Cl)c(N[C@H]3[C@@H](C(N)=O)[C@@H]4C=C[C@H]3C4)n2)ccc2c1CC[C@@H](N1CCOCC1)CC2,0.543%,9.17%,7.05%,-16.7%,-3.5%
CC(C)CCn1c(=O)c2ccc(C(=O)NC(C)C)cc2n2c(=O)n(CC(=O)c3ccc(F)cc3F)nc12,-0.519%,-1.15%,-2.88%,-6.01%,-4.25%
CO/N=C(\C(=O)N[C@@H]1C(=O)N2C(C(=O)O)=C(COC(C)=O)CS[C@H]12)c1csc(N)n1,-18.9%,15.4%,3.5%,1.77%,10.8%
O=C(CCn1ccn2nc3c(c2c1=O)CCCC3)Nc1ccc(F)cc1F,-3.91%,2.92%,1.64%,-13.5%,-4.5%
COCCN[C@H]1[C@@H]2OC[C@@H](O2)[C@@H](NC(=O)Nc2ccc(OC)cc2)[C@@H]1O,-1.01%,-3.71%,0.699%,-9.2%,-2.78%
CC(C)Cn1c(=O)c2ccccc2n2c(SCc3ccccc3)nnc12,-10.4%,0%,1.63%,-11.5%,3.07%
COc1ccc(CNC(=O)c2cc3n(n2)CC(C)(C(=O)NC2CCCCCC2)N(C)C3=O)cc1 (stereo not given),-7.47%,5.12%,-7.96%,4.29%,-3.58%
CCN1CCC(CC(=O)N2CCC(C3CCN(C(=O)NC)CC3)C2)CC1 (stereo not given),0.621%,0.169%,-2.06%,0.968%,3.26%
O=[N+]([O-])c1ccc(-[n+]2nc(-c3ccccc3)nn2-c2ccc(I)cc2)cc1,-44.1%,-43.2%,-36%,-53.6%,-46.8%
COc1ccc(CNC(=O)C2(C)Cn3cnc(C(=O)NCc4cccc(Cl)c4)c3C(=O)N2C2CC2)cc1 (stereo not given),-7.2%,4.63%,-3.67%,-6.45%,-0.359%
O=C(CCC1CCN(Cc2ccccc2)CC1)c1ccc2c(c1)NCCCC2,1.76%,12.3%,-32.5%,-7.99%,3.32%
CC(C)CCn1c(=O)c2ccccc2n2c(CCC(=O)NCCCOC(C)C)nnc12,-4.31%,3.51%,7.78%,2.28%,3.41%
COc1ccc(Cn2c(=O)c3ccccc3n3c(-c4ccc(Br)cc4)nnc23)cc1,-2.4%,3.94%,-1.83%,1.95%,-2.15%
CNc1ccc(C)cc1C(=O)N1CCN(C)C2(CCN(C)CC2)C1,-8.35%,-10.2%,-6.1%,-17.6%,-10.1%
CC(=O)Nc1c2n(c3ccc(F)cc13)CC(C)(C(=O)NC1CCCC1)N(Cc1ccccc1)C2=O (stereo not given),4.53%,0%,8.73%,11.5%,3.62%
CN(C)C(=O)c1n[nH]c2c1CN(C(=O)c1ccccc1Br)CC2,-0.115%,0.283%,-1.42%,-1.29%,6.17%
CCOCCCN1C(=O)c2ccc(-c3ccccc3)n2CC1(C)C(=O)NC1CCCCCCC1 (stereo not given),-2.12%,0.882%,2.45%,-7.45%,-2.79%

Compound,"activity change, negative = inhibition [1]","activity change, negative = inhibition [2]","activity change, negative = inhibition [3]","activity change, negative = inhibition [4]","activity change, negative = inhibition [5]"
O=c1[nH]c(C2CCCN(Cc3cccc(Cl)c3)C2)nc2ccc(F)cc12 (stereo not given),-9.1%,-3.11%,-21.9%,-19.4%,-20.5%
CCCn1c(=O)c2cc(Cl)ccc2n2c(=O)n(Cc3ccc(Cl)cc3)nc12,-1.01%,4.32%,4.54%,1.98%,0.941%
O=C(NC1CCCC1)c1ccc2c(=O)n(Cc3ccccc3)c3nn(Cc4ccccc4F)c(=O)n3c2c1,-0.158%,2.69%,-0.916%,-0.04%,-1.72%
CC(CNC(=O)CCc1nnc2n(Cc3ccc(F)cc3)c(=O)c3ccccc3n12)c1ccccc1 (stereo not given),-17.9%,-2.71%,-15.2%,-34.2%,-7.82%
C#CCN(Cc1ccco1)Cc1cnc(S(C)(=O)=O)n1CCCc1ccccc1,-3.68%,0.742%,0.436%,-12.3%,-4.48%
CC1(C)CN(C(=O)c2ccc(-c3cccc4nc(NC(=O)C5CC5)nn34)cc2)C1,-15.3%,-14.1%,11.5%,-21.3%,-5.6%
COCC(=O)N1CC(C(=O)NCCc2ccc(OC)cc2)CC(c2ccc(F)c(C)c2)C1 (stereo not given),0.007%,1.9%,2.13%,-3.48%,1.43%
CN1CCN(Cc2ncc[nH]2)CC12CCC(=O)N(CC(=O)O)CC2 (stereo not given),-6.08%,-8.26%,-3.52%,-11.8%,-11.2%
COc1cccc(-c2ccc(CN3CCCC(NC(=O)c4ccc(Cl)cc4)C3)cc2)c1 (stereo not given),-5.09%,-8.82%,-8.68%,-11.4%,-16.8%
Cc1ccc(CNC(=O)Cn2ccc3cc(S(=O)(=O)N4CCC(C)CC4)ccc32)cc1,-0.043%,0%,0.614%,0.523%,0.513%
CCCC1c2cccn2CCN1C(=O)Nc1ccc(C)c(Cl)c1 (stereo not given),-0.67%,0.943%,-21.1%,-0.644%,2.65%
O=C(c1ccncc1)N1CC2CCC(C1)N2Cc1ccc(-c2cccs2)cc1,-3.3%,-7.23%,-0.607%,-6.94%,-2.59%
COc1ccc(CNc2cc3c(cn2)CN(Cc2ccccc2)CCN3)cc1OC,-40.6%,-7.9%,-94.4%,-61.1%,-19.6%
C=C(C)C(=O)OC1[C@@H]2C(=C)C(=O)O[C@@H]2C[C@@H](C)[C@@H]2C=CC(=O)[C@@]12C (stereo not given in full),3.8%,2.67%,9.81%,-5.8%,5.07%
Cc1ccc(CS(=O)(=O)NC2CCc3n[nH]c(=O)n3CC2)cc1C (stereo not given),-0.812%,0.214%,0.858%,-4.16%,-9.4%
CC(C)OCCCn1c(=O)c2ccccc2n2c(=O)n(CC(=O)c3ccc(F)cc3)nc12,0.013%,0%,8.03%,-5.45%,1.1%
COc1ccc(CNC(=O)C2(C)Cn3cnc(C(=O)Nc4ccc(C(C)C)cc4)c3C(=O)N2C2CC2)cc1 (stereo not given),-2.13%,0.709%,3.17%,-5.07%,1.69%
CCCn1c(=O)c2ccc(C(=O)NCC(C)C)cc2n2c(=O)n(CC(N)=O)nc12,0.951%,0.788%,3.32%,3.24%,4.01%
COc1ccc(CCc2nc(-c3nnn4c3COC(c3ccc(Cl)cc3)C4)no2)cc1 (stereo not given),-2.07%,-2.31%,-0.37%,2.56%,4.93%
COc1ccccc1N1CCN(C(=O)Cn2c(=O)oc3cc(S(=O)(=O)N4CCCC4)ccc32)CC1,6.37%,0%,-0.014%,-0.51%,1.15%

Compound,"activity change, negative = inhibition [1]","activity change, negative = inhibition [2]","activity change, negative = inhibition [3]","activity change, negative = inhibition [4]","activity change, negative = inhibition [5]"
C[C@]1(O)CC[C@@H]2C(C(=O)O)=CO[C@@H](O[C@@H]3O[C@H](CO)[C@@H](O)[C@H](O)[C@H]3O)[C@@H]21,0%,7.04%,8.07%,-5.25%,4.55%
CC1(C(=O)NC2CCCCC2)Cn2c(nc3ccccc32)C(=O)N1Cc1ccccc1Br (stereo not given),4.05%,3.82%,4.35%,-0.232%,-2.34%
COc1ccccc1CNC(=O)C1(C)Cn2nc(-c3ccccc3)cc2C(=O)N1CCc1ccco1 (stereo not given),3.04%,0%,8.3%,3.16%,2.92%
Cc1ccc(CNC(=O)CSc2nnc3n(CC(C)C)c(=O)c4ccccc4n23)cc1,-4.44%,-2.89%,1.95%,-3.07%,-4.6%
CCc1ccc(C(=O)NC(Cc2c[nH]c3ccccc23)C(=O)OCC(=O)c2ccc(Br)cc2)cc1 (stereo not given),14%,1.18%,11.8%,-0.131%,4.74%
O=c1c2ccccc2n2c(SCc3ccccc3)nnc2n1CCc1ccccc1,-1.27%,0%,6%,-4.93%,3.91%
CCCC(CCC)C(=O)OC1CC2CCC(C1)[N+]2(C)C (stereo not given),7.92%,10.1%,13.9%,-4.34%,3.93%
COc1cc(CNC(=O)CCCC/C=C/C(C)C)ccc1O,-4.98%,2.95%,6.88%,-15.2%,-2.66%
Clc1ccc(C2(c3ccc(-c4cn[nH]c4)cc3)CCNCC2)cc1,0.109%,8.68%,-92.9%,-33.4%,4.2%
CCOc1ccccc1CNC(=O)CCn1ccc2cc(S(=O)(=O)N3CCCCC3)ccc21,8.8%,0.431%,-1.16%,0.674%,1.4%
O=C(c1ccccc1)N1CCC(Oc2cccc(F)c2)(C(=O)O)CC1,-6.65%,-9.2%,-5.43%,-5.48%,-9.03%
COC(=O)c1cc2n(n1)CC(C)(C(=O)NC1CCCCCC1)N(Cc1cccc(C)c1)C2=O (stereo not given),-0.613%,0.865%,-7.77%,-0.231%,-0.162%
CC(C)Cn1c(=O)c2ccccc2n2c(SCc3cccc(F)c3)nnc12,-7.26%,4.14%,1.76%,-13%,1.98%
CCCn1c(=O)c2ccccc2n2c(SCc3c(F)cccc3Cl)nnc12,-16.2%,1.82%,4.59%,-19.9%,8.67%
COc1ccc(CCN2C(=O)c3nc4ccccc4n3CC2(C)C(=O)NC2CCCCC2)cc1OC (stereo not given),-1.29%,4.56%,-5.48%,-26.5%,-0.867%
COc1ccc(NS(=O)(=O)c2cc3[nH]c(=O)[nH]c3cc2C)c(OC)c1,8.66%,2.38%,11.2%,2.21%,-2.06%
Cc1cccc2c1cnn2C(=O)CCC(=O)N1CCN(C2CCCCC2)CC1,-4.98%,0%,0.349%,-0.264%,-2.39%
O=C(CCn1ccc2cc(S(=O)(=O)N3CCCCC3)ccc21)NCCc1ccccc1,0.524%,0.982%,-4.76%,-4.1%,0.354%
NC1CCN(O)C1=O (stereo not given),-4.81%,5.82%,0.673%,-5.38%,5.83%
CCS(=O)(=O)c1cccc(-c2cc(C(=O)NC3CCN(C)CC3)c(C)c3[nH]c4ncc(C)cc4c23)c1,-17.2% and -22.4%,3.06%,-18.3% and -28.4%,-54.4% and -67.1%,-0.704% and -11.1%
